Experimental data taken from PubChem BioAssay AID504332 (National Center for Advancing Translational Sciences (NCATS), 2011).
Out of some 350,000 compounds screened, about 31,000 (8.9%) were called active. Inconclusive means that the source gave no clear call. Such entries were picked first, then a sample of the others. The call rests on the fitted dose curve; in most records, active means well fitted inhibition curve with a large enough effect; inconclusive means small, poorly fitted or top-dose-only effect; inactive means no such curve, though single readings can be large or run the other way. Where the call is inconclusive, the potency comes from a doubtful curve fit.

Each compound was assayed against Histone-lysine N-methyltransferase EHMT2 (Homo sapiens) (UniProt Q96KQ7) (assay: qHTS Assay for Inhibitors of Histone Lysine Methyltransferase G9a). Details: G9a H3K9 monomethylation, AlphaScreen, 2 h; activity, negative = inhibition: at 59 µM (top of the series) unless noted.
Chain of UniProt Q96KQ7 (Q96KQ7 whole entry, looked up): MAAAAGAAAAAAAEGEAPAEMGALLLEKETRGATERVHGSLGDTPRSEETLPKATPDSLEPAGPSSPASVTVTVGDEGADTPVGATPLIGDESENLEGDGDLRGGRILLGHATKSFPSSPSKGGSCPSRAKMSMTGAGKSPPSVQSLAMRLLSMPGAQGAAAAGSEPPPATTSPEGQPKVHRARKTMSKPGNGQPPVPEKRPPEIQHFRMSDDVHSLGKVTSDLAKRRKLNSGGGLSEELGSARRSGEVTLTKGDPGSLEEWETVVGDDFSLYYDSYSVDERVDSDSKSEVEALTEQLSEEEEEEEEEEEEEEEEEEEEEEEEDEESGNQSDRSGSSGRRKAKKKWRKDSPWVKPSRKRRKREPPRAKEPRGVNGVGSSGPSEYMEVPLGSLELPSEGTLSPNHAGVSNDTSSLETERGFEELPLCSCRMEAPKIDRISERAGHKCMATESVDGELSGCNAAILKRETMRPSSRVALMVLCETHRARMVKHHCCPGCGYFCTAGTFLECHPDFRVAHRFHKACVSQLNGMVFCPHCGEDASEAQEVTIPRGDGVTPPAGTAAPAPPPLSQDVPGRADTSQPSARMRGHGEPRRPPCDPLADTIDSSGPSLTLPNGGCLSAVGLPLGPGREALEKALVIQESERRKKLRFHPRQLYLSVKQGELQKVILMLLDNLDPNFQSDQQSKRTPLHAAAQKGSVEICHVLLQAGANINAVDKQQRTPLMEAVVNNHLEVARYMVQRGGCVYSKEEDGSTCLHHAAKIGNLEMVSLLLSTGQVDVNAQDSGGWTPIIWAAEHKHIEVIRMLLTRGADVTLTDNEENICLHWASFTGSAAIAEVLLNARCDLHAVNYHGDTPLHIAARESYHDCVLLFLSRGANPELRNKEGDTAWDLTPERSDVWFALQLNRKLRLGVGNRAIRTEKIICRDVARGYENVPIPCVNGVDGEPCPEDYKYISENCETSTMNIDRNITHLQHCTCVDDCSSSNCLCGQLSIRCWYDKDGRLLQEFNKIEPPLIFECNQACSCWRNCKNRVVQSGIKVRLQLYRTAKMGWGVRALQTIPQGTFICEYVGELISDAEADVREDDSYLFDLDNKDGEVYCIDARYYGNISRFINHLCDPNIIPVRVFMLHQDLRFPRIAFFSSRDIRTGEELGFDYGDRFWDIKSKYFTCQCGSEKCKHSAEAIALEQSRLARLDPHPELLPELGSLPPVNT
Summary of the method: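 AlphaScreen detection with an anti-monomethyl H3K9 antibody quantified product after a 2 h room-temperature reaction containing 500 nM biotinylated H3K9 peptide, 20 µM SAM and 20 nM enzyme, which had been preincubated 15 min with compound.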
Further: nearly all actives have a fitted effect of over 75% in size.
On the % scale 0 is the no-effect control and ±100 the full control effect; potency means the concentration at half of the fitted maximal effect; tags describe the fitted curve by direction and shape.

**Q.** Which activity, negative = inhibition does the source give for `O=C(CSc1nnc(-c2cccs2)n1-c1ccccc1)NCc1ccco1` here?
**A.** inactive: -5.59% [at 12.7 µM]

**Q.** Which Potency does the source give for `COc1ccc2c(CSc3nnc(-c4cccnc4)n3-c3ccccc3F)cc(=O)oc2c1` here?
**A.** inconclusive: 22.4 µM [inhibitor, single point]

**Q.** How did the Potency turn out when `O=C1CC(N2CCC(c3nc4ccccc4[nH]3)CC2)C(=O)N1c1ccccc1F` (stereo unspecified) was run?
**A.** active: 35.5 µM

**Q.** Which Potency does the source give for `COc1ccc(C2c3c(n(C)c4ccccc34)C(=O)N2CC(=O)Nc2ccccc2F)cc1` (stereo unspecified) here?
**A.** inconclusive: 5.62 µM [inhibitor, partial curve, poor fit]

**Q.** How did the Potency turn out when `Cn1c(SCC(N)=O)nnc1-c1ccc(C(C)(C)C)cc1` was run?
**A.** inconclusive: 50.1 µM [inhibitor, partial curve, poor fit]

**Q.** Which Potency does the source give for `O=C(O)c1ccc(Nc2nc(-c3cc4ccccc4oc3=O)cs2)cc1O` here?
**A.** active: 39.8 µM

**Q.** For `Cc1c(OCC(=O)NCC2CCC(C(=O)O)CC2)ccc2c3c(c(=O)oc12)CCC3` (stereo unspecified), which “activity, negative = inhibition” value is on record?
**A.** inactive: 0.857% [at 102 µM]

**Q.** How did the Potency turn out when `COc1ccc(S(=O)(=O)N2CCN(C(=O)C3COc4ccccc4O3)CC2)cc1` (stereo unspecified) was run?
**A.** inconclusive: 5.62 µM [inhibitor, single point]

**Q.** `COc1ccc(NC(=O)c2sc3nc4n(c(=O)c3c2C)CCC4)cc1Cl` was tested. Which “activity, negative = inhibition” value did it give?
**A.** inactive: 4.92%

**Q.** How did the Potency turn out when `COc1ccccc1C(=O)NC(=S)/C=C1/N(C)c2ccccc2C1(C)C` was run?
**A.** active: 10 µM

**Q.** For `COc1ccc(CNC(=O)C/C(C)=N/NC(=O)c2cnccn2)cc1`, which Potency is on record?
**A.** inconclusive: 70.8 µM [inhibitor, single point]

**Q.** For `O=C(NNc1ccccc1)Nc1ccccc1F`, which Potency is on record?
**A.** active: 50.1 µM

**Q.** Which Potency does the source give for `C=CCN1C(=O)/C(=c2\sc3nc(=O)c(Cc4ccccc4Cl)nn3c2=O)c2ccccc21` here?
**A.** active: 11.2 µM

**Q.** Which activity, negative = inhibition does the source give for `Cn1cccc1C(=O)N1CCC2(CCN(Cc3nccs3)CC2)CC1` here?
**A.** inactive: 2.15% [at 12.7 µM]

**Q.** `Cc1csc(NC(=O)CSc2nc(=O)n(CCCN(C)C)c3c2CCC3)n1` was tested. Which “activity, negative = inhibition” value did it give?
**A.** inactive: -47% [at 102 µM]

**Q.** How did the Potency turn out when `CCc1ccc(NC(=O)N(CCN(C)C)C(C)c2cccnc2)cc1` (stereo unspecified) was run?
**A.** inconclusive: 10 µM [inhibitor, full curve, poor fit]

**Q.** With `CCn1c(SCC(=O)N/N=C/C=C/c2ccco2)nnc1-c1ccccc1` as the compound, how does the Potency read?
**A.** active: 15.8 µM

**Q.** How did the “activity, negative = inhibition” value turn out when `COCCNC(=O)C(c1ccc(F)cc1)N(Cc1cccs1)C(=O)CCC(=O)Nc1ccccn1` (stereo unspecified) was run?
**A.** inactive: 10.9% [at 102 µM]

**Q.** How did the Potency turn out when `OCCC#Cc1c(-c2ccsc2)sc2ccccc12` was run?
**A.** active: 11.2 µM

**Q.** With `Cc1cc[n+](CCC(=O)O)c2ccccc12` as the compound, how does the Potency read?
**A.** inconclusive: 15.8 µM [inhibitor, partial curve]

**Q.** For `CCOC(=O)N1CCC(NC(=O)c2ccc3c(c2)N(C)CCS3)CC1`, which Potency is on record?
**A.** inconclusive: 39.8 µM [inhibitor, single point]
